From patent US20250333445A1 (ONCOPEPTIDES INNOVATION 1, published 2025)

B1: A10-YY-His6 (wild-type A10 with C-terminal His6 tag) (designed binder)
chain: VDNKFNKEVQMAQFEIRKLPNLNHHQSFAFIKSLMDDPSQSANLLAEAKKLNDAQAPKYYHHHHHH
notes: also called A10-His6; original A10 polypeptide
B2: A10 H25A, polypeptide-YY-His6 (designed binder)
chain: VDNKFNKEVQMAQFEIRKLPNLNHAQSFAFIKSLMDDPSQSANLLAEAKKLNDAQAPKYYHHHHHH
B3: A10 M35A, polypeptide-YY-His6 (designed binder)
chain: VDNKFNKEVQMAQFEIRKLPNLNHHQSFAFIKSLADDPSQSANLLAEAKKLNDAQAPKYYHHHHHH
B4: A10 alanine variant at position 9 (V9A), polypeptide-YY-His6 (designed binder)
chain: VDNKFNKEAQMAQFEIRKLPNLNHHQSFAFIKSLMDDPSQSANLLAEAKKLNDAQAPKYYHHHHHH
B5: A10 alanine variant at position 10 (Q10A), polypeptide-YY-His6 (designed binder)
chain: VDNKFNKEVAMAQFEIRKLPNLNHHQSFAFIKSLMDDPSQSANLLAEAKKLNDAQAPKYYHHHHHH
B6: A10 alanine variant at position 11 (M11A), polypeptide-YY-His6 (designed binder)
chain: VDNKFNKEVQAAQFEIRKLPNLNHHQSFAFIKSLMDDPSQSANLLAEAKKLNDAQAPKYYHHHHHH
B7: A10 alanine variant at position 13 (Q13A), polypeptide-YY-His6 (designed binder)
chain: VDNKFNKEVQMAAFEIRKLPNLNHHQSFAFIKSLMDDPSQSANLLAEAKKLNDAQAPKYYHHHHHH
B8: A10 alanine variant at position 14 (F14A), polypeptide-YY-His6 (designed binder)
chain: VDNKFNKEVQMAQAEIRKLPNLNHHQSFAFIKSLMDDPSQSANLLAEAKKLNDAQAPKYYHHHHHH
B9: A10 alanine variant at position 17 (R17A), polypeptide-YY-His6 (designed binder)
chain: VDNKFNKEVQMAQFEIAKLPNLNHHQSFAFIKSLMDDPSQSANLLAEAKKLNDAQAPKYYHHHHHH
B10: A10 alanine variant at position 18 (K18A), polypeptide-YY-His6 (designed binder)
chain: VDNKFNKEVQMAQFEIRALPNLNHHQSFAFIKSLMDDPSQSANLLAEAKKLNDAQAPKYYHHHHHH
B11: A10 alanine variant at position 24 (H24A), polypeptide-YY-His6 (designed binder)
chain: VDNKFNKEVQMAQFEIRKLPNLNAHQSFAFIKSLMDDPSQSANLLAEAKKLNDAQAPKYYHHHHHH
B12: A10 alanine variant at position 27 (S27A), polypeptide-YY-His6 (designed binder)
chain: VDNKFNKEVQMAQFEIRKLPNLNHHQAFAFIKSLMDDPSQSANLLAEAKKLNDAQAPKYYHHHHHH
B13: A10 alanine variant at position 28 (F28A), polypeptide-YY-His6 (designed binder)
chain: VDNKFNKEVQMAQFEIRKLPNLNHHQSAAFIKSLMDDPSQSANLLAEAKKLNDAQAPKYYHHHHHH
B14: A10 alanine variant at position 31 (I31A), polypeptide-YY-His6 (designed binder)
chain: VDNKFNKEVQMAQFEIRKLPNLNHHQSFAFAKSLMDDPSQSANLLAEAKKLNDAQAPKYYHHHHHH
notes: also called 131A (so in the source)
B15: A10 alanine variant at position 32 (K32A), polypeptide-YY-His6 (designed binder)
chain: VDNKFNKEVQMAQFEIRKLPNLNHHQSFAFIASLMDDPSQSANLLAEAKKLNDAQAPKYYHHHHHH

Target: T1, hCD16a F158 (Cat. no. CDA-H5220, Acro Biosystems) (human, UniProt P08637 17-208)
T1 construct: also called human CD16a F158; hCD16a F158 allotype
Experiment: SPR (Biacore T200), 200 nM analyte over immobilised hCD16a F158

Binder | binding result
B1 | binds
B2 | binds
B3 | binds
B4 | binds
B5 | binds
B6 | binds
B7 | binds
B8 | binds
B9 | binds
B10 | binds
B11 | binds
B12 | binds
B13 | binds
B14 | binds
B15 | binds
